# Source: the supplement of paper PMC8728848
# This is one part of the list.
# Tests used:
# Experiment in all cases: glycan array binding signal (z-score within array); higher = stronger binding
# Conditions in all cases: glycan notation: IUPAC condensed, linker removed
# [1] = biological target: Fuc(a1-2)Gal
# Method in brief: (§1)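 The binding signal is a Z-score computed within each array and averaged over linkers. Arrays of the same protein sequence at different concentrations or buffers were also averaged together. Data originate from 3228 arrays in the Consortium for Functional Glycomics database, kept only where the protein sequence was available.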
# [2] = biological target: Fuc(a1-2)Gal(b1-3)GalNAc
# Method in brief: as §1
# [3] = biological target: Fuc(a1-2)Gal(b1-3)GalNAc(b1-3)Gal
# Method in brief: as §1
# [4] = biological target: Fuc(a1-2)Gal(b1-3)GalNAc(b1-3)Gal(a1-4)Gal(b1-4)Glc
# Method in brief: as §1
# [5] = biological target: Fuc(a1-2)Gal(b1-3)GalNAc(b1-4)[Neu5Ac(a2-3)]Gal(b1-4)Glc
# Method in brief: as §1
# [6] = biological target: Fuc(a1-2)Gal(b1-3)GlcNAc
# Method in brief: as §1
# [7] = biological target: Fuc(a1-2)Gal(b1-3)GlcNAc(b1-3)Gal(b1-4)Glc
# Method in brief: as §1
# [8] = biological target: Fuc(a1-2)Gal(b1-3)[Fuc(a1-4)]GlcNAc
# Method in brief: as §1
# [9] = biological target: Fuc(a1-2)Gal(b1-4)Glc
# Method in brief: as §1
# [10] = biological target: Fuc(a1-2)Gal(b1-4)GlcNAc
# Method in brief: as §1
# [11] = biological target: Fuc(a1-2)Gal(b1-4)GlcNAc(b1-3)Gal(b1-4)GlcNAc
# Method in brief: as §1
# [12] = biological target: Fuc(a1-2)Gal(b1-4)GlcNAc(b1-3)Gal(b1-4)GlcNAc(b1-3)Gal(b1-4)GlcNAc
# Method in brief: as §1
# [13] = biological target: Fuc(a1-2)Gal(b1-4)[Fuc(a1-3)]GlcNAc
# Method in brief: as §1
# [14] = biological target: Fuc(a1-2)Gal(b1-4)[Fuc(a1-3)]GlcNAc(b1-3)Gal(b1-4)[Fuc(a1-3)]GlcNAc
# Method in brief: as §1
# [15] = biological target: Fuc(a1-2)Gal(b1-4)[Fuc(a1-3)]GlcNAc(b1-3)Gal(b1-4)[Fuc(a1-3)]GlcNAc(b1-3)Gal(b1-4)[Fuc(a1-3)]GlcNAc
# Method in brief: as §1
# [16] = biological target: Fuc(a1-2)GlcNAc
# Method in brief: as §1
# [17] = biological target: Fuc(a1-2)[Gal(a1-3)]Gal
# Method in brief: as §1
# [18] = biological target: Fuc(a1-2)[Gal(a1-3)]Gal(b1-3)GlcNAc
# Method in brief: as §1
# [19] = biological target: Fuc(a1-2)[Gal(a1-3)]Gal(b1-4)Glc
# Method in brief: as §1
# [20] = biological target: Fuc(a1-2)[Gal(a1-3)]Gal(b1-4)GlcNAc
# Method in brief: as §1
# [21] = biological target: Fuc(a1-2)[Gal(a1-3)]Gal(b1-4)[Fuc(a1-3)]GlcNAc
# Method in brief: as §1
# [22] = biological target: Fuc(a1-2)[Gal(a1-4)]Gal(b1-4)GlcNAc
# Method in brief: as §1
# [23] = biological target: Fuc(a1-2)[GalNAc(a1-3)]Gal
# Method in brief: as §1
# [24] = biological target: Fuc(a1-2)[GalNAc(a1-3)]Gal(b1-3)GlcNAc
# Method in brief: as §1
# [25] = biological target: Fuc(a1-2)[GalNAc(a1-3)]Gal(b1-4)Glc
# Method in brief: as §1
# [26] = biological target: Fuc(a1-2)[GalNAc(a1-3)]Gal(b1-4)GlcNAc
# Method in brief: as §1
# [27] = biological target: Fuc(a1-2)[GalNAc(a1-3)]Gal(b1-4)[Fuc(a1-3)]GlcNAc
# Method in brief: as §1
# [28] = biological target: Fuc(a1-2)[GalNAc(a1-4)]Gal(b1-4)GlcNAc
# Method in brief: as §1
# [29] = biological target: Fuc(a1-2)[GalNAc(b1-3)]Gal
# Method in brief: as §1
# [30] = biological target: Fuc(a1-3)GlcNAc
# Method in brief: as §1
# [31] = biological target: Fuc(a1-3)[Gal(b1-4)]GlcNAc
# Method in brief: as §1
# [32] = biological target: Fuc(a1-3)[Gal(b1-4)]GlcNAc(b1-4)Gal(b1-4)[Fuc(a1-3)]GlcNAc
# Method in brief: as §1
# [33] = biological target: Fuc(a1-3)[Gal(b1-4)]GlcNAc(b1-4)Gal(b1-4)[Fuc(a1-3)]GlcNAc(b1-4)Gal(b1-4)[Fuc(a1-3)]GlcNAc
# Method in brief: as §1
# [34] = biological target: Fuc(a1-3)[Gal3S(b1-4)]GlcNAc
# Method in brief: as §1
# [35] = biological target: Fuc(a1-3)[GalNAc(b1-4)]GlcNAc
# Method in brief: as §1
# [36] = biological target: Fuc(a1-4)GlcNAc
# Method in brief: as §1
# [37] = biological target: Fuc(b1-3)GlcNAc
# Method in brief: as §1
# [38] = biological target: Gal(a1-2)Gal
# Method in brief: as §1
# [39] = biological target: Gal(a1-3)Gal
# Method in brief: as §1
# [40] = biological target: Gal(a1-3)Gal(b1-3)GlcNAc
# Method in brief: as §1
# [41] = biological target: Gal(a1-3)Gal(b1-4)Glc
# Method in brief: as §1
# [42] = biological target: Gal(a1-3)Gal(b1-4)GlcNAc
# Method in brief: as §1
# [43] = biological target: Gal(a1-3)Gal(b1-4)[Fuc(a1-3)]GlcNAc
# Method in brief: as §1
# [44] = biological target: Gal(a1-3)GalNAc
# Method in brief: as §1
# [45] = biological target: Gal(a1-3)[Gal(a1-4)]Gal(b1-4)GlcNAc
# Method in brief: as §1
# [46] = biological target: Gal(a1-4)Gal(b1-4)Glc
# Method in brief: as §1
# [47] = biological target: Gal(a1-4)Gal(b1-4)GlcNAc
# Method in brief: as §1
# [48] = biological target: Gal(a1-4)GlcNAc
# Method in brief: as §1
# [49] = biological target: Gal(a1-6)Glc
# Method in brief: as §1
# [50] = biological target: Gal(b1-2)Gal
# Method in brief: as §1
# [51] = biological target: Gal(b1-3)Gal
# Method in brief: as §1
# [52] = biological target: Gal(b1-3)GalNAc
# Method in brief: as §1
# [53] = biological target: Gal(b1-3)GalNAc(b1-3)Gal(a1-4)Gal(b1-4)Glc
# Method in brief: as §1
# [54] = biological target: Gal(b1-3)GalNAc(b1-4)Gal(b1-4)Glc
# Method in brief: as §1
# [55] = biological target: Gal(b1-3)GalNAc(b1-4)[Neu5Ac(a2-3)]Gal(b1-4)Glc
# Method in brief: as §1
# [56] = biological target: Gal(b1-3)GlcNAc
# Method in brief: as §1
# [57] = biological target: Gal(b1-3)GlcNAc(b1-3)Gal(b1-4)Glc
# Method in brief: as §1
# [58] = biological target: Gal(b1-3)GlcNAc(b1-3)Gal(b1-4)GlcNAc
# Method in brief: as §1
# [59] = biological target: Gal(b1-3)[Fuc(a1-4)]GlcNAc
# Method in brief: as §1
# [60] = biological target: Gal(b1-3)[Fuc(a1-4)]GlcNAc(b1-3)Gal(b1-4)GlcNAc
# Method in brief: as §1
binder,measurement,setting,value
"F4 (Escherichia coli), A0A6L9DDF0 (protein) MKKTLIALALAASAVSGMAHAWTSGDFNGTVDIGGSIDATNYRQKWEWEVGTGLNGFYNALSELTNNDTKLTITVTGNKPILLGRTKEAFVTPTAGGWGGIPQIAFTDYKGAPVELKNPDGETNKGLAYFVLPMKNADGTEAGSVRVNASYAGAVVEKTSDSSAKLFSAYAGEVIRIFNGGLPVNVTQSELQSGVAAADRTALFGSLGKADLVAQFQAVIPGATVTDGTSSEHCTMRLLASAAYALGIADGQTIEATFNQAVTTSTQWSAPLNVAITYY",glycan array binding signal (z-score),[1],-0.076
same,glycan array binding signal (z-score),[2],-0.145
same,glycan array binding signal (z-score),[3],-0.184
same,glycan array binding signal (z-score),[4],-0.028
same,glycan array binding signal (z-score),[5],-0.264
same,glycan array binding signal (z-score),[6],-0.18
same,glycan array binding signal (z-score),[7],-0.147
same,glycan array binding signal (z-score),[8],1.02
same,glycan array binding signal (z-score),[9],-0.177
same,glycan array binding signal (z-score),[10],-0.118
same,glycan array binding signal (z-score),[11],-0.206
same,glycan array binding signal (z-score),[12],-0.264
same,glycan array binding signal (z-score),[13],-0.068
same,glycan array binding signal (z-score),[14],-0.216
same,glycan array binding signal (z-score),[15],-0.171
same,glycan array binding signal (z-score),[16],0.043
same,glycan array binding signal (z-score),[17],-0.198
same,glycan array binding signal (z-score),[18],-0.237
same,glycan array binding signal (z-score),[19],-0.191
same,glycan array binding signal (z-score),[20],-0.072
same,glycan array binding signal (z-score),[21],-0.409
same,glycan array binding signal (z-score),[22],-0.156
same,glycan array binding signal (z-score),[23],-0.144
same,glycan array binding signal (z-score),[24],-0.23
same,glycan array binding signal (z-score),[25],-0.241
same,glycan array binding signal (z-score),[26],-0.038
same,glycan array binding signal (z-score),[27],-0.233
same,glycan array binding signal (z-score),[28],0.35
same,glycan array binding signal (z-score),[29],-0.33
same,glycan array binding signal (z-score),[30],-0.164
same,glycan array binding signal (z-score),[31],-0.223
same,glycan array binding signal (z-score),[32],-0.141
same,glycan array binding signal (z-score),[33],0.154
same,glycan array binding signal (z-score),[34],-0.144
same,glycan array binding signal (z-score),[35],-0.274
same,glycan array binding signal (z-score),[36],-0.215
same,glycan array binding signal (z-score),[37],-0.106
same,glycan array binding signal (z-score),[38],-0.128
same,glycan array binding signal (z-score),[39],-0.13
same,glycan array binding signal (z-score),[40],-0.257
same,glycan array binding signal (z-score),[41],-0.243
same,glycan array binding signal (z-score),[42],-0.155
same,glycan array binding signal (z-score),[43],-0.127
same,glycan array binding signal (z-score),[44],-0.124
same,glycan array binding signal (z-score),[45],-0.344
same,glycan array binding signal (z-score),[46],0.033
same,glycan array binding signal (z-score),[47],-0.203
same,glycan array binding signal (z-score),[48],-0.181
same,glycan array binding signal (z-score),[49],-0.326
same,glycan array binding signal (z-score),[50],-0.197
same,glycan array binding signal (z-score),[51],-0.231
same,glycan array binding signal (z-score),[52],-0.37
same,glycan array binding signal (z-score),[53],-0.292
same,glycan array binding signal (z-score),[54],-0.346
same,glycan array binding signal (z-score),[55],-0.32
same,glycan array binding signal (z-score),[56],-0.207
same,glycan array binding signal (z-score),[57],-0.278
same,glycan array binding signal (z-score),[58],-0.228
same,glycan array binding signal (z-score),[59],-0.26
same,glycan array binding signal (z-score),[60],-0.232
